Laboratory results: PubChem BioAssay AID504832 (National Center for Advancing Translational Sciences (NCATS), 2011)
Out of some 310,000 compounds screened, about 18,000 (5.8%) were called active. Inconclusive results, whose numbers are uncertain, are shown with a selection of clear calls. Calls follow the shape of the dose curve; as a rule, active = well fitted inhibition curve with a large enough effect; inconclusive = small, poorly fitted or top-dose-only effect, or another doubt; inactive = no such curve, though single readings can be large or run the other way. Potencies of inconclusive entries are left out as doubtful fits.

Experiment: Primary qHTS for delayed death inhibitors of the malarial parasite plastid, 48 hour incubation
Settings: P. falciparum luciferase growth in erythrocytes; series mostly up to 28.7 µM; activity change, negative = inhibition: at the top concentration
Outline: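 In quantitative HTS format, infected erythrocytes bearing luciferase-reporter parasites were treated for a single generation at 37 C. Luminescence after adding detection reagent served as the growth measure.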
% is scaled to controls: 0 for no effect and ±100 for the full control effect; potency is read from the fitted curve at half-maximal effect; tags tell the direction and shape of the fitted curve.

Row | SMILES | activity change, negative = inhibition | Potency
1 | O=C(O)CSC1CC(=O)N(c2ccc(Cl)c(Cl)c2)C1=O (stereo not drawn) | inactive: 4.78% | 
2 | COc1ccc(-c2nc(CS(=O)(=O)CC(=O)NCc3ccccc3OC)c(C)o2)cc1 | inactive: 25.5% | 
3 | CCc1ccc(-c2cc3c(=O)n(CC(=O)NCCCN4CCN(C)CC4)ncn3n2)cc1 |  | inconclusive [inhibitor, single point]
4 | C/C(=N/NC(=O)c1ccc(C)s1)c1ccncc1 | inactive: 35.8% | 
5 | O=C(NCCCN1CCOCC1)c1ccc2c(=O)n(Cc3cccc(Br)c3)c(=S)[nH]c2c1 |  | inconclusive [inhibitor, partial curve]
6 | CC(=O)Nc1ccc(S(=O)(=O)N2CCN(c3nc4ccccc4n3CC(C)C)CC2)cc1 |  | inconclusive [inhibitor, partial curve]
7 | O=C(Nc1cc(C(F)(F)F)ccc1-n1cncn1)c1ccc([N+](=O)[O-])o1 |  | inconclusive [inhibitor, single point]
8 | O=C(Nc1ccc(Oc2ccc(S(=O)(=O)N3CCOCC3)cn2)cc1)c1ccco1 |  | inconclusive [inhibitor, partial curve]
9 | Cc1occc1C(=O)N/N=C/c1ccccn1 |  | inconclusive [inhibitor, single point]
10 | C[C@H](NC(=O)c1nc[nH]c1C(=O)N[C@@H](CCCCNC(=O)OC(C)(C)C)C(=O)OC(C)(C)C)C(=O)OC(C)(C)C |  | active: 9.28 µM
11 | CCCCSc1nc(N)c(C#N)c(-c2cccs2)c1C#N |  | inconclusive [inhibitor, single point]
12 | CCOC(=O)c1c(NC(=O)C(C)OC(=O)c2ccc(NC(=O)CC#N)cc2)sc2c1CCCC2 (stereo not drawn) |  | inconclusive [inhibitor, single point]
13 | CCC(C)[C@H](N)c1nnc(SCc2cccc(F)c2)o1 (stereo partly drawn) |  | inconclusive [inhibitor, partial curve, poor fit]
14 | COc1ccccc1-c1ocnc1C(=O)Nc1ccc(N2CCOCC2)cc1N1CCOCC1 |  | inconclusive [inhibitor, partial curve]
15 | Cc1nnc2ccc(-c3ccc(NS(=O)(=O)c4ccccc4)cc3)nn12 |  | inconclusive [inhibitor, single point]
16 | CSc1ccccc1NC(=O)N1CCC(CO)(CC2CCCCO2)CC1 (stereo not drawn) | inactive: 2.91% | 
17 | CN1CCc2nc(SCC(=O)Nc3ccc(F)cc3)c(C#N)cc2C1 | inactive: 29.4% | 
18 | Fc1ccc(NC(=S)N2CCN(C/C=C/c3ccccc3)CC2)c(F)c1 |  | inconclusive [inhibitor, single point]
19 | O=C(Nc1ccc(S(=O)(=O)N2CCCCC2)cc1)C1CC(=O)N(Cc2ccccc2)C1 (stereo not drawn) |  | active: 13.1 µM
20 | CN(c1ccccc1)S(=O)(=O)c1cccc(NC(=O)COc2cccc([N+](=O)[O-])c2)c1 |  | active: 13.1 µM
21 | Nc1c2c(nc3ccn(-c4ccccc4)c(=O)c13)CCCCC2 |  | inconclusive [inhibitor, single point]
22 | Cc1ccsc1C1C(C#N)=C(N)N(N(C)C)C2=C1C(=O)CCC2 (stereo not drawn) |  | inconclusive [inhibitor, single point]

Row | SMILES | activity change, negative = inhibition | Potency
23 | CCOc1ccc(C(=O)Nc2ccccc2CC)cc1[N+](=O)[O-] | inactive: 19.6% | 
24 | COc1cc(-c2nc3cnccn3c2Nc2ccc(C)cc2)ccc1O |  | inconclusive [inhibitor, single point]
25 | CC(C)CN(C(=O)COC(=O)Cc1cccc2ccccc12)c1c(N)n(Cc2ccccc2)c(=O)[nH]c1=O |  | inconclusive [inhibitor, single point]
26 | COc1cc(CN2CC(=O)N(c3cccc(Cl)c3C)C2=S)cc(OC)c1OC |  | active: 2.62 µM
27 | Fc1ccc(CNCc2ccco2)cc1 | inactive: 1.66% [at 0.00184 µM] | 
28 | COc1ccccc1NS(=O)(=O)c1ccc(Cl)c(NC(=O)CN2C(=O)c3ccccc3C2=O)c1 | inactive: 20.7% | 
29 | O=C(CSc1nnc(Cc2ccccc2)n1-c1cccc(Cl)c1)NNC(=O)Cc1ccccc1 | inactive: 7.37% | 
30 | COc1cccc(NC(=O)C(Sc2nnc(Nc3ccccc3C)s2)c2ccccc2)c1 (stereo not drawn) |  | inconclusive [inhibitor, partial curve]
31 | CN(C)S(=O)(=O)c1cccc(C(=O)Nc2ccc(S(=O)(=O)N3CCCC3)cc2)c1 |  | active: 11.7 µM
32 | Cc1cccc(Oc2nc(CN3CCOCC3)nc3sc4c(c23)CCCC4)c1 |  | active: 10.4 µM
33 | CN(Cc1c(C(=O)N/N=C/c2cccc(F)c2)nnn1-c1nonc1N)c1ccccc1 |  | inconclusive [inhibitor, single point]
34 | O=S(=O)(c1cccs1)N1CN(Cc2ccccc2)c2nc3ccccc3nc21 |  | inconclusive [inhibitor, single point]
35 | CCOC(=O)c1ccc2[nH]c3c(c2c1)CCCCC3=O |  | inconclusive [inhibitor, single point]
36 | COc1ccc(OC)c(NC(=O)CSc2ncnc3c2cnn3-c2ccccc2Cl)c1 |  | active: 10.4 µM
37 | CC(=O)Nc1ccc(S(=O)(=O)N2CCC(c3nnc(-c4ccc(C)cc4)o3)CC2)cc1 |  | inconclusive [inhibitor, single point]
38 | O=C(c1ccco1)N1N=C(c2cccs2)CC1c1cc([N+](=O)[O-])ccc1O (stereo not drawn) | inactive: 4.93% | 
39 | O=C(COc1ccc(Cl)cc1)Nc1ccc(Cc2ccncc2)cc1 |  | inconclusive [inhibitor, partial curve, poor fit]
40 | CCOC(=O)N1CCN(C(=O)c2ccc(C)c(S(=O)(=O)Nc3cccc(C)c3C)c2)CC1 |  | inconclusive [inhibitor, single point]
41 | Cc1cc(F)ccc1NC(=O)CCc1ccc(S(=O)(=O)N2CCOCC2)cc1 |  | inconclusive [inhibitor, partial curve, poor fit]
42 | COC(=O)c1ccc(N2CCC(c3cc(-c4ccc(OC)cc4)n[nH]3)CC2)c([N+](=O)[O-])c1 |  | inconclusive [inhibitor, partial curve, poor fit]
43 | COc1ccc(-n2nnc3c(SCC(=O)NCC4CCCO4)ncnc32)cc1 (stereo not drawn) |  | inconclusive [inhibitor, single point]
